{"source": "PubChem BioAssay AID504466", "about": "(National Center for Advancing Translational Sciences (NCATS), 2011)", "note": "Screen size: about 330,000 compounds; about 4,200 (1.3%) were called active. This list was built around the results that the source calls inconclusive (neither active nor inactive); the mix of calls is not that of the screen. Calls follow the shape of the dose curve; as a rule, active = well fitted activation curve with a large enough effect; inconclusive = small, poorly fitted or top-dose-only effect; inactive = no such curve, though single readings can be large or run the other way. Where the call is inconclusive, the potency comes from a doubtful curve fit. Potency is read from the fitted curve at half-maximal effect; tags tell the direction and shape of the fitted curve."}
{"assay": "qHTS screen for small molecules that induce genotoxicity in human embryonic kidney (HEK293T) cells expressing luciferase-tagged ELG1; also: nearly all actives have a fitted effect of over 60% in size; as to activity change, positive = activation: % of control where 0% means no effect", "settings": "HEK293T ELG1-luciferase reporter, luminescence, 16 h; series mostly up to 46 µM", "summary_of_the_method": "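DMSO vehicle served as control against compound-treated ELG1-luciferase HEK293T cells; exposure lasted 16 hr at 37 °C and 5% CO2, followed by ONE-Glo luminescence detection after 30 min.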"}
{"smiles": "O=C(CSc1nnc(NC(=O)c2ccc(F)cc2)s1)NCc1ccco1", "Potency": "inconclusive: 5.8 µM [activator, partial curve]"}
{"smiles": "CCc1ccc(NC(=O)NCc2ccccn2)cc1", "Potency": "inconclusive: 16.4 µM [activator, partial curve]"}
{"smiles": "COc1ccc(CCNC(=O)COc2cc(=O)n(C)c3ccccc23)cc1OC", "Potency": "inactive"}
{"smiles": "N#C/C(C(=O)N1CCOCC1)=C1\\Nc2ccccc2S1", "Potency": "inconclusive: 18.4 µM [activator, partial curve]"}
{"smiles": "COc1ccc(-c2ccc(SCC(=O)NC3CCCCC3)nn2)cc1", "Potency": "inconclusive: 10.3 µM [activator, partial curve, poor fit]"}
{"smiles": "O=S(=O)(Nc1nc2c(s1)CCCC2)c1ccc(F)cc1", "Potency": "inconclusive: 16.4 µM [activator, partial curve, poor fit]"}
{"smiles": "Cc1ccc(SC/C(O)=C(\\C#N)c2nc3ccccc3s2)cc1", "Potency": "inactive"}
{"smiles": "Cc1cc(C)nc(N/N=C/C(Cl)=C/c2ccccc2)n1", "Potency": "inconclusive: 20.6 µM [activator, partial curve]"}
{"smiles": "O=C(Nc1ccc(-c2nc3cc(Cl)ccc3o2)cc1)C1CCCO1", "note": "(configuration not stated)", "Potency": "active: 18.4 µM"}
{"smiles": "N#C/C(C(=O)Oc1ccccc1)=C1/Nc2ccccc2-c2ccccc21", "Potency": "inactive"}
{"smiles": "Cc1noc(C)c1CSc1nc2ccccc2c(=O)n1-c1ccccc1", "Potency": "inconclusive: 23.1 µM [activator, single point]"}
{"smiles": "COc1cccc(C(=O)/C=C2\\Sc3ccccc3N2C)c1", "Potency": "active: 1.46 µM"}
{"smiles": "Cc1cc(-c2ccccc2)n(-c2ccccc2)n1", "Potency": "inconclusive: 23.1 µM [activator, partial curve, poor fit]"}
{"smiles": "COc1cccc(C2=CC(c3cccc(OC)c3OC)n3nnnc3N2)c1", "note": "(configuration not stated)", "Potency": "inconclusive: 16.4 µM [activator, partial curve]"}
{"smiles": "Cc1nc(NCCc2ccccc2)sc1C(=O)O", "Potency": "inactive"}
{"smiles": "Cc1cccc(NC(=O)CSCC(=O)Nc2nnc(C3CC3)s2)c1", "Potency": "inconclusive: 20.6 µM [activator, single point]"}
{"smiles": "O=C(CN1C(=O)CC(c2ccccc2)S(=O)(=O)c2ccccc21)N1CCCC1", "note": "(configuration not stated)", "Potency": "inactive"}
{"smiles": "Cc1ccc(-c2ccc(CCC(=O)O)o2)cc1", "Potency": "inactive"}
{"smiles": "Nc1nc2ccccc2n1/N=C/c1ccc2c(c1)OCO2", "Potency": "inconclusive: 16.4 µM [activator, partial curve]"}
{"smiles": "Cc1cccc(C(=O)NC2CCCCCCC2)c1", "Potency": "inconclusive: 18.3 µM [activator, partial curve]"}
{"smiles": "Cn1c(=O)c2c(SCc3ccccn3)nc(C3CC3)nc2n(C)c1=O", "Potency": "active: 16.4 µM"}
{"smiles": "O=C(Nc1cccc(Cl)c1)c1cnc[nH]1", "Potency": "inconclusive: 18.3 µM [activator, partial curve]"}
{"smiles": "COc1ccc(C(=O)Nn2cnc3ccccc3c2=O)c(OC)c1", "Potency": "inconclusive: 13 µM [activator, partial curve, poor fit]"}
{"smiles": "Cc1cc(/C=C2\\SC(=S)NC2=O)c(C)[nH]1", "Potency": "inconclusive: 18.3 µM [activator, partial curve, poor fit]"}
{"smiles": "CN1c2ccccc2C(=O)C(=C2SCCCS2)S1(=O)=O", "Potency": "inactive"}
{"smiles": "Cc1ccc2nc(-c3ccc(NS(=O)(=O)c4ccc(F)cc4)cc3)sc2c1", "Potency": "inconclusive: 3.66 µM [activator, full curve]"}
{"smiles": "CN(C(=O)CCN1C(=O)S/C(=C\\c2ccccc2)C1=O)C1CCS(=O)(=O)C1", "note": "(configuration not stated)", "activity change, positive = activation": "inactive: -0.517% [at 9.26 µM]"}
{"smiles": "Cc1ccc(CNC(=O)CN(C(=O)C2(C)CC(=O)N=C3C=CC=CN32)c2cccc(C)c2C)cc1", "note": "(configuration not stated)", "Potency": "inactive"}
{"smiles": "O=C(NCCc1nnc2ccccn12)c1cccs1", "Potency": "inconclusive: 20.6 µM [activator, single point]"}
{"smiles": "CC(=O)N1CCc2c(sc(NC(=O)C3CCCCC3)c2C(N)=O)C1", "Potency": "inconclusive: 20.6 µM [activator, partial curve, poor fit]"}
{"smiles": "COc1ccc(C(CC(=O)c2ccccc2)S(=O)(=O)c2ccccc2)cc1", "note": "(configuration not stated)", "Potency": "active: 18.4 µM"}
{"smiles": "CCC(O)CNC(=O)CCc1nnc(C2(c3ccc(Cl)cc3)CCC2)o1", "note": "(configuration not stated)", "Potency": "inactive"}
{"smiles": "CN1CCN(CC(O)COc2ccc(Cl)cc2)CC1", "note": "(configuration not stated)", "Potency": "inconclusive: 16.4 µM [activator, single point]"}
{"smiles": "CC(=O)Oc1ccc(OC(C)=O)c(SCCCCCCl)c1", "Potency": "inconclusive: 4.61 µM [activator, single point]"}
{"smiles": "COC(=O)Cc1[nH]n(-c2nc3ccccc3s2)c(=O)c1C(C)=O", "Potency": "inconclusive: 18.4 µM [activator, single point]"}
{"smiles": "COCCNC(=O)c1cc(-c2ccccc2OC)on1", "Potency": "inconclusive: 25.9 µM [activator, partial curve, poor fit]"}
{"smiles": "COc1ccc(S(=O)(=O)NCC(=O)NCc2cc(=O)n(C)c(=O)n2C)cc1C", "Potency": "inactive"}
{"smiles": "O=C(CNC(=O)c1ccccc1Cl)c1ccccc1", "Potency": "active: 9.2 µM"}
{"smiles": "O=c1[nH]cccc1-c1nc2ccccc2[nH]1", "Potency": "inconclusive: 18.3 µM [activator, partial curve, poor fit]"}
{"smiles": "COc1ccc(C(=O)CCNc2cccc(Cl)c2)cc1", "Potency": "inconclusive: 16.4 µM [activator, partial curve, poor fit]"}
{"smiles": "CC(=O)Nc1ccc(S(=O)(=O)/N=C2/NC(=O)/C(=C\\c3ccco3)S2)cc1", "Potency": "inconclusive: 1.16 µM [activator, full curve, poor fit]"}
{"smiles": "CC1CCC(NC(=O)CCS(=O)(=O)c2ccc3c(c2)NC(=O)C(C)S3)CC1", "note": "(configuration not stated)", "Potency": "inactive"}
{"smiles": "O=C(Nc1ccc(-c2n[nH]c(=S)o2)cc1)c1ccccc1", "Potency": "inactive"}
{"smiles": "C#CCOCCOCCOCCNc1nc(N2CCN(C(=O)[C@H](CCCCN)n3cc(C(N)CO)nn3)CC2)nc(N2CCN(C(=O)[C@H](CCC(=O)O)n3cc(C(N)[C@H](C)CC)nn3)CC2)n1", "note": "(some centres not stated)", "Potency": "inactive"}
{"smiles": "COc1ccc(C(=O)OCC(=O)c2ccc[nH]2)cc1", "Potency": "inconclusive: 29.1 µM [activator, partial curve, poor fit]"}
{"smiles": "Cn1cnnc1SCC(=O)c1ccc2c(c1)CCCC2", "Potency": "inconclusive: 18.4 µM [activator, single point]"}
{"smiles": "CS(=O)(=O)N1CCN(c2nc3ccc(Cl)cc3s2)CC1", "Potency": "inactive"}
